Reference: PMC4336329 (PLoS ONE, 2015)
About 14,000 (4.5%) of roughly 310,000 compounds showed an effect of 50% or more. Effects have a minus sign here. This is one part of the list.

biological target: human ether-à-go-go-related gene (hERG) potassium channel (human, UniProt Q12809); assay: primary screen, population patch clamp on CHO cells stably expressing hERG
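Also: peak tail current of the secondary pulse compared with the same well before compound.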

human ether-à-go-go-related gene (hERG) potassium channel, sequence (Q12809 whole entry, looked up): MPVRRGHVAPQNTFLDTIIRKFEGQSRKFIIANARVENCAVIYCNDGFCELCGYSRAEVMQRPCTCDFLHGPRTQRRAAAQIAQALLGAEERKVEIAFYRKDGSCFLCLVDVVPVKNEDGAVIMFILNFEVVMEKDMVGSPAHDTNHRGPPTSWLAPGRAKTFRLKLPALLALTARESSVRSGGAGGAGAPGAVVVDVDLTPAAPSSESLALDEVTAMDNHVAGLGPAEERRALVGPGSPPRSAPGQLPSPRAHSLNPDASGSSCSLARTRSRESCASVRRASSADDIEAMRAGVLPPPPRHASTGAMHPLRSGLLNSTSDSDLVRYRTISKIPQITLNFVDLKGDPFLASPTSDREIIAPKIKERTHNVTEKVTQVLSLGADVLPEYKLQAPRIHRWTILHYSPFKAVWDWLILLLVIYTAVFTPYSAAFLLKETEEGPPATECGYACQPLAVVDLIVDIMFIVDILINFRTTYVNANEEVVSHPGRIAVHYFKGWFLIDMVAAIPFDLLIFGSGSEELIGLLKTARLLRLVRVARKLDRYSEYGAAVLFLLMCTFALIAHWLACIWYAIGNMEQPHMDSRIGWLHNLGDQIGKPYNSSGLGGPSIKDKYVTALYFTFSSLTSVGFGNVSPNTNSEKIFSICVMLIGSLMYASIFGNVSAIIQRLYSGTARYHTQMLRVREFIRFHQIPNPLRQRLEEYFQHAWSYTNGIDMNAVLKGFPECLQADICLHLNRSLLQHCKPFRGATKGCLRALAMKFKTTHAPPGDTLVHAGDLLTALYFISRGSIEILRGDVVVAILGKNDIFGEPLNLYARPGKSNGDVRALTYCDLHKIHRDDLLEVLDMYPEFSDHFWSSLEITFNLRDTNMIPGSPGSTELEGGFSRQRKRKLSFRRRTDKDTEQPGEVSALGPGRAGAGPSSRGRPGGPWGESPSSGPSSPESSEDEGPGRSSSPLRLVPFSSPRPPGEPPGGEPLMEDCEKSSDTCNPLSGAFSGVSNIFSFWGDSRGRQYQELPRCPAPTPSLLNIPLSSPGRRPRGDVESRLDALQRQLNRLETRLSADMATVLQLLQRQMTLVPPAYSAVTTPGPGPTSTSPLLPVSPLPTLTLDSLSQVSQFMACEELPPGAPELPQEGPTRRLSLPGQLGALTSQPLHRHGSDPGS

| SMILES | hERG current change (%, negative = inhibition) at 10uM [%] |
| --- | --- |
| N#CCCN(C(=O)COC(=O)CNC(=O)c1cccs1)c1ccc(F)cc1 | -19.6 |
| CC(C)(C)c1ccccc1NC(=O)Cn1cnc2cc([N+](=O)[O-])ccc2c1=O | -10.3 |
| CCOC(=O)C1CCN(C(=O)/C=C/c2cc(OC)c(OC)c(OC)c2)CC1 | -1.38 |
| Cc1c(NC2=C(Cl)C(=O)N(c3ccccc3Cl)C2=O)c(=O)n(-c2ccccc2)n1C | 4.52 |
| COc1ccc(NC(=O)COC(=O)CC2CCCCC2)cc1 | -15.8 |
| O=c1oc2ccccc2c(Nc2ccc3ccccc3c2)c1[N+](=O)[O-] | -3.9 |
| NS(=O)(=O)c1cccc(NC(=O)CCCNC(=O)c2ccc(Cl)cc2)c1 | 4.85 |
| O=C(CCl)NNc1nc(-c2ccccc2)c2cc(Cl)ccc2n1 | 1.46 |
| CCc1ccccc1NC(=O)CC(c1ccc(OC)cc1)n1cccc1 (stereo not drawn) | -6.25 |
| Nc1ccccc1C(=O)NC1CCCCNC1=O (stereo not drawn) | 26.2 |
| CC(Sc1ccc(S(=O)(=O)N2CCOCC2)cc1[N+](=O)[O-])C(=O)O (stereo not drawn) | -1.58 |
| O=C(Nc1ccc(N2CCOCC2)cc1N1CCOCC1)c1ccco1 | -8.33 |
| O=S(=O)(/N=C(\Sc1ccc(Cl)cc1)c1ccccc1)c1ccccc1 | 28.5 |
| Cc1cccc(OCCCN2CCCCCC2)c1 | -28.2 |
| CCn1c(SCC(=O)N/N=C/c2ccccc2OCC(=O)O)nnc1-c1ccc(OC)cc1 | 21.7 |
| CCOP(=O)(OCC)C(Nc1cccc(C)c1)c1ccc(F)cc1 (stereo not drawn) | 2.94 |
| CCCn1c(SCC(=O)NCc2ccccc2Cl)n[nH]c1=O | 2.57 |
| C/C(=N\NC(=O)c1ccn(C)n1)c1cccc(NC(=O)c2ccc(C)s2)c1 | -4.34 |
| Cn1c(=O)[nH]c(=O)c2c1nc(N1CCCCCC1)n2Cc1cccc2ccccc12 | 3.64 |
| Cn1c(=O)c(=O)n(C)c2cc(S(=O)(=O)N3CCCCC3)ccc21 | -14.4 |
| O=c1oc2cc(OCc3ccc(F)cc3F)ccc2cc1-c1ccc2ccccc2n1 | 1.72 |
| Cc1noc(C)c1CSc1nnc2scc(-c3ccc(Cl)cc3)n12 | -49.8 |
| CC(=O)c1cnc2c(-c3ccc(Cl)cc3)cnn2c1C | -1.45 |

| SMILES | hERG current change (%, negative = inhibition) at 10uM [%] |
| --- | --- |
| CCOC(=O)N1CCC(NC(=O)c2sc(-n3cccc3)nc2C)CC1 | -4.74 |
| C=CCNC(=S)N/N=C/c1ccccc1OCCOc1ccccc1 | -0.289 |
| Br.Nc1ccc(Nc2nc(-c3ccncc3)cs2)cc1 | -17.1 |
| COc1ccc(OC)c(-n2c(C)cc(/C=C3\C(=N)N4N=C(CC(=O)N5CCOCC5)SC4=NC3=O)c2C)c1 | 16.9 |
| O=C(NC1CCN(C(=O)Nc2ccccc2Cl)CC1)c1cccc(F)c1 | 4.81 |
| Cc1cc(=O)[nH]c(SCC(=O)Nc2nc(-c3ccccc3)cs2)n1 | 10.4 |
| CCc1ccccc1NC(=O)CC1S/C(=N\c2nccs2)N(CC)C1=O (stereo not drawn) | -3.6 |
| Cc1ccc(-n2ncc3c(=O)n(CC(=O)N(C)C)cnc32)cc1C | 4.69 |
| C=CCNC(=O)c1onc(CSc2cccc(OCC)c2)c1C(=O)O | 6.3 |
| CC(Cc1cnccn1)NC(=O)c1cc(COc2ccc(F)cc2F)on1 (stereo not drawn) | 4.3 |
| Cc1ccccc1N(Cc1cc(=O)[nH]c2ccccc12)C(=O)C(C)C | 10.5 |
| Cc1cccc(CS(=O)(=O)Cc2ccc(C(=O)O)o2)c1 | 16.5 |
| CCn1c(N)c(C(=O)NCCOC)sc1=S | 10.5 |
| Cc1ccccc1Nc1nc(N)nc(COC(=O)C2CCCCC2)n1 | 8.35 |
| CCCNC(=S)N1CCC(C(=O)c2ccc(Cl)cc2)CC1 | -1.59 |
| Cc1ccc(/C=N/NC(=O)NC23CC4CC(CC(C4)C2)C3)o1 | -21.4 |
| CCn1c(=O)c(C(=O)Nc2ccc(C)cc2C)c(O)c2ccccc21 | 7.12 |
| CCOc1c(CNCCN2CCOCC2)cccc1OC.Cl | 0.0932 |
| Oc1ccc(-c2ccccc2)cc1CN1CCCCCC1 | -52.1 |
| CC(C)n1c(-c2ccco2)csc1=Nc1cccnc1 | -10.3 |
| CC(=O)c1c(C(C)=O)c(C)n(NC(=O)c2ccccc2O)c1C | 0.477 |
| Cc1ccc(C)c(S(=O)(=O)Nc2cc3c4c(c2)CC(=O)N4CCC3)c1 | -0.333 |
| COc1ccc(N2CCN(CCNC(=O)Nc3ccc(C)c(Cl)c3)CC2)cc1 | 15.9 |

| SMILES | hERG current change (%, negative = inhibition) at 10uM [%] |
| --- | --- |
| CC(=O)c1cccc(OCC(O)CNCC2COc3ccccc3O2)c1.O=C(O)C(=O)O (stereo not drawn) | -13.5 |
| Cc1nc2ccccc2c2oc(C(=O)NCCCN3CCCC(C)C3)cc12 (stereo not drawn) | -19 |
| COC(=O)c1ccccc1NC(=O)CC#N | 7.85 |
| CCN(Cc1nc2ccccc2c(=O)[nH]1)Cc1cc(=O)oc2cc(C)c(C)cc12 | -41.4 |
| O=C(COC(=O)c1ccccc1Br)NCCC1=CCCCC1 | -15.9 |
| C#CCNC(=O)C1=C[C@@H](c2ccccc2)C[C@@H](OCc2ccc(CO)cc2)O1 | -13.4 |
| CC(=O)N1CCSc2ccc(S(=O)(=O)NCCc3ccc(Cl)cc3)cc21 | -13.5 |
| Cc1ccc(C(=O)OCC(=O)Nc2ccccc2C(F)(F)F)cc1S(=O)(=O)N1CCOCC1 | -6.9 |
| O=C(COC(=O)c1cc(Cl)ccc1O)NCCC1=CCCCC1 | 11.5 |
| COC(=O)c1scc(C)c1NC(=O)Nc1ccccc1 | 3.91 |
| COc1ccc(Nc2cc(C)c3cc([N+](=O)[O-])ccc3n2)cc1 | 14.8 |
| Cc1nn(-c2ccccc2)c(C)c1[N+](=O)[O-] | -3.51 |
| Cc1cc(C)c(NC(=O)Cn2c(=O)n(Cc3ccco3)c(=O)c3ccccc32)c(C)c1 | 9.28 |
| COc1ccc(/C=C/C(=O)Nc2cc(C)nn2-c2nc3ccccc3n2Cc2cccc([N+](=O)[O-])c2)cc1 | -2.38 |
| COc1cc(C(=O)N2c3ccccc3CC2C)cc(OC)c1OC (stereo not drawn) | 10.4 |
| Cc1onc(-c2c(Cl)cccc2Cl)c1/C(N)=N/OC(=O)C(C)(C)C | -7.94 |
| COCCCNc1nc2c(-c3ccc(Cl)cc3)nnn2c2ccccc12 | -16.4 |
| N#CCc1c(C#N)c(N)nc(N2CCN(C=O)CC2)c1C#N | -10.8 |
| Cc1csc2c(N3CCN(C(=O)Nc4ccc(Cl)c(Cl)c4)CC3)ncnc12 | -8.47 |
| O=C(Nc1cccc2nsnc12)c1cccnc1Cl | -32.7 |
| CCCCP(=O)(CCCC)Cc1ccccc1O | 13.9 |
| Nc1ccc(-c2cc3ccccc3oc2=O)cc1 | 9.68 |
| COc1cccc(C(=O)NCCC2=CCCCC2)c1OC | -7.52 |

| SMILES | hERG current change (%, negative = inhibition) at 10uM [%] |
| --- | --- |
| CC(C)(C)c1ccc(OCCCN2CCCC2)cc1 | -56.4 |
| CN(C)CCOC(=O)Cc1ccc(Cl)cc1.Cl | -5.75 |
| O=C(NN1C(=O)C2C3C=CC(C4CC34)C2C1=O)c1cccc(Cl)c1 (stereo not drawn) | -3.23 |
| CCOC(=O)Cc1csc(NC(=O)c2c(C)noc2C)n1 | 9.3 |
| CCC(=O)N1CCc2cc(S(=O)(=O)Nc3ccccc3C)ccc21 | 18 |
| CCOC(=O)C1=C(COC(=O)/C=C/c2ccc(O)c(OC)c2)NC(=O)NC1C (stereo not drawn) | -2.95 |
| COc1ccc(/C=N/NC(=O)c2[nH]c(C)c(C(=O)N/N=C/c3ccc(OC)cc3)c2C)cc1 | 2.38 |
| CCCc1cc(C(=O)Nc2ccc(C#N)cc2)no1 | 3.45 |
| COc1ccc(-n2nc(C(=O)NCC(=O)N3CCC4(CC3)OCCO4)c3ccccc3c2=O)cc1OC | 19.7 |
| Cc1cccc(C(=O)N2c3ccccc3C(=O)OC2c2ccc3c(c2)OCO3)c1 (stereo not drawn) | 10.6 |
| OC(COc1ccc(Cl)cc1)CN1CCN(c2ccccn2)CC1 (stereo not drawn) | -68 |
| Cc1ccc(N(CCC(=O)N2CCOCC2)S(=O)(=O)c2ccccc2)cc1 | -8.57 |
| O=C(CCN1CCCCCC1)Nc1ccc2c(c1)OCCO2.O=C(O)C(=O)O | -1.98 |
| CCOc1cc(/C=C2/SC(=S)N(Cc3ccccc3)C2=O)ccc1O | 14.4 |
| Clc1ccc(SCCCCn2ccnc2)cc1 | -53 |
| Br.Cc1ccccc1N=C/C=C1/C=C(c2ccccc2)OC(C)(C)O1 | -0.956 |
| Cc1c(C(=O)NN2CCN(C)CC2)cccc1[N+](=O)[O-] | 3.7 |
| COc1ccc2c(c1)CCC1C2=NN(/C(C)=C/C(C)=O)C1c1cccc(F)c1 (stereo not drawn) | 9.68 |
| CC(C)(C)NC(=O)NC(=O)CN1CCN(c2ccccc2O)CC1 | 16.8 |
| O=C(NCCNC1CCC(c2ccccc2)CC1)c1ccc(F)cc1 (stereo not drawn) | -58.3 |
| CN(C(=O)c1ccc(NC(=O)Cc2ccc(NC(=O)C3CCCN(C(=O)C4CCCC4)C3)cc2)cc1)C1CC1 (stereo not drawn) | 14 |
